This is one part of the list. These are noisy estimates, calculated here from bound and input reads.

For the test, the target named is T1, Pho4 (S. cerevisiae) (UniProt P07270).
T1 sequence: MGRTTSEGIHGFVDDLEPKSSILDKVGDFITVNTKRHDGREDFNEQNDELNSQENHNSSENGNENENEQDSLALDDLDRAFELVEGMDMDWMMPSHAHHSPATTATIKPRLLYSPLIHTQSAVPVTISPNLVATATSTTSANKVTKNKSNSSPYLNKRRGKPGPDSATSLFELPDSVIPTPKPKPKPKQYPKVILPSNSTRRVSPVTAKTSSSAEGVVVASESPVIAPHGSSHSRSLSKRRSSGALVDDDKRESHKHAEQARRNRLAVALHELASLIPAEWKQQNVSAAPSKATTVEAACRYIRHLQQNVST
Description: relative binding free energy (BET-seq); higher = weaker binding. Particulars: reference: library average.
Regarding GTTGTCACGTGGGGGA, the “relative binding free energy” value was 0.1 kcal/mol.

As for GATTGCACGTGGGGTG, the “relative binding free energy” value is -0.17 kcal/mol.

Turning to GTGTTCACGTGTTCTA, the “relative binding free energy” value is 0.18 kcal/mol.

Consider CTGGGCACGTGTGGTG, for which the “relative binding free energy” value is -0.12 kcal/mol.

Take AGGAGCACGTGGGCTA: the “relative binding free energy” value was -0.33 kcal/mol.

Turning to TTGGTCACGTGGATCA, the “relative binding free energy” value is 0.32 kcal/mol.

Take GGTACCACGTGTTGGA: the “relative binding free energy” value is -0.03 kcal/mol.

As for GGTCTCACGTGCAGTT, the “relative binding free energy” value worked out at 0.27 kcal/mol.

As for ACTGTCACGTGTTTAG, the “relative binding free energy” value is 0.14 kcal/mol.

Regarding GATGACACGTGTGGCT, the “relative binding free energy” value came to 0.16 kcal/mol.

As to TCTGGCACGTGGGACA, the “relative binding free energy” value is -0.07 kcal/mol.

With GCTTGCACGTGGGCGG, the “relative binding free energy” value is -0.15 kcal/mol.

With GATTACACGTGGATAG, the “relative binding free energy” value was found to be 0.21 kcal/mol.

Take GTAATCACGTGCGTTT: the “relative binding free energy” value was 0.16 kcal/mol.

On to TTCGGCACGTGATATA, for which the “relative binding free energy” value was found to be 0.02 kcal/mol.

In the case of GATGTCACGTGTGTGC, the “relative binding free energy” value was found to be 0.27 kcal/mol.

As to GGGGTCACGTGAGCAT, the “relative binding free energy” value came to 0.25 kcal/mol.

Turning to TGGTGCACGTGATGAC, the “relative binding free energy” value was 0.12 kcal/mol.

As for ATCAGCACGTGGGCGG, the “relative binding free energy” value is -0.27 kcal/mol.

Regarding GGATTCACGTGTATTT, the “relative binding free energy” value was 0.29 kcal/mol.

In the case of AGTCGCACGTGGGGTG, the “relative binding free energy” value is -0.25 kcal/mol.

For the sequence AGGGTCACGTGAGCGG, the “relative binding free energy” value came to 0.14 kcal/mol.

With TGTTACACGTGTTACT, the “relative binding free energy” value came out at 0.03 kcal/mol.

For AGTGTCACGTGGTTCG, the “relative binding free energy” value came to 0.05 kcal/mol.

As for TCTTGCACGTGTTGAG, the “relative binding free energy” value stood at 0.01 kcal/mol.

On to TGGGTCACGTGTGACA, for which the “relative binding free energy” value was determined as 0.09 kcal/mol.

Turning to AGACTCACGTGTGGTA, the “relative binding free energy” value was 0.35 kcal/mol.

Consider TAAGGCACGTGTTTCT, for which the “relative binding free energy” value is -0.07 kcal/mol.

For GTCTTCACGTGGGGGC, the “relative binding free energy” value turned out to be 0.17 kcal/mol.

GTAGTCACGTGTCGGA: the “relative binding free energy” value stood at 0.13 kcal/mol.

With AAGGACACGTGTGGTT, the “relative binding free energy” value was -0.02 kcal/mol.

On to GTGCTCACGTGTATTT, for which the “relative binding free energy” value worked out at 0.26 kcal/mol.

Turning to TTATTCACGTGCGTAT, the “relative binding free energy” value was 0.18 kcal/mol.

TTATACACGTGGAGTA: the “relative binding free energy” value worked out at 0 kcal/mol.

As to TGGCCCACGTGGTTGG, the “relative binding free energy” value is -0.3 kcal/mol.

Take ATCTTCACGTGGGGTA: the “relative binding free energy” value came to 0.12 kcal/mol.

TCGTGCACGTGGCGTT: the “relative binding free energy” value was -0.18 kcal/mol.

Regarding CTACGCACGTGGGGGT, the “relative binding free energy” value was -0.35 kcal/mol.

Regarding GTGTGCACGTGTGGGC, the “relative binding free energy” value was 0.11 kcal/mol.

Turning to CCTGGCACGTGGGAAG, the “relative binding free energy” value was -0.08 kcal/mol.

In the case of GGGTTCACGTGGCGAT, the “relative binding free energy” value came out at 0.24 kcal/mol.

Regarding GGCTGCACGTGCGGGG, the “relative binding free energy” value is -0.1 kcal/mol.

For the sequence CTGTACACGTGTCTGG, the “relative binding free energy” value stood at 0.12 kcal/mol.

Turning to TAGAGCACGTGGGTAT, the “relative binding free energy” value is -0.14 kcal/mol.

Take TGGAACACGTGGTGCG: the “relative binding free energy” value is 0 kcal/mol.

Regarding GTGGTCACGTGTCTAG, the “relative binding free energy” value was determined as 0.1 kcal/mol.

Regarding GCTGGCACGTGGGGGT, the “relative binding free energy” value was -0.22 kcal/mol.

Regarding TTAACCACGTGTGGTG, the “relative binding free energy” value was -0.03 kcal/mol.

On to TTGATCACGTGGCGAT, for which the “relative binding free energy” value is -0.01 kcal/mol.

For the sequence TGGCGCACGTGAAGGG, the “relative binding free energy” value worked out at 0.18 kcal/mol.

On to GTGGTCACGTGTGAAA, for which the “relative binding free energy” value was determined as 0.25 kcal/mol.

Take TTGGGCACGTGCGGAC: the “relative binding free energy” value was -0.17 kcal/mol.

With CGTGGCACGTGGCGGC, the “relative binding free energy” value is -0.14 kcal/mol.

In the case of GAGATCACGTGGTTCT, the “relative binding free energy” value stood at 0.23 kcal/mol.

Turning to TATTTCACGTGTGAGT, the “relative binding free energy” value stood at 0.27 kcal/mol.

With AGTCTCACGTGATTAG, the “relative binding free energy” value was 0.29 kcal/mol.

With GTAGCCACGTGGGATG, the “relative binding free energy” value is 0.03 kcal/mol.

As for AGGCTCACGTGGGAAA, the “relative binding free energy” value turned out to be 0.27 kcal/mol.

For TATGTCACGTGGTTAG, the “relative binding free energy” value is -0.03 kcal/mol.

With ATCTTCACGTGTTGTA, the “relative binding free energy” value worked out at 0.15 kcal/mol.

In the case of TACTTCACGTGGTCGG, the “relative binding free energy” value was determined as 0.14 kcal/mol.

On to AAAGACACGTGAGGGT, for which the “relative binding free energy” value came out at 0.27 kcal/mol.

As to TTGTTCACGTGTTTTG, the “relative binding free energy” value was 0.27 kcal/mol.

In the case of GGTAGCACGTGGACGG, the “relative binding free energy” value came out at 0.03 kcal/mol.

Turning to TGGGACACGTGTAAGT, the “relative binding free energy” value worked out at 0.12 kcal/mol.

For CGGGCCACGTGACGGT, the “relative binding free energy” value amounted to 0.04 kcal/mol.

As to GTCATCACGTGGCGTG, the “relative binding free energy” value is 0.16 kcal/mol.

Regarding AGTTCCACGTGTGTGA, the “relative binding free energy” value is 0.07 kcal/mol.

As for AGTTGCACGTGGAAAA, the “relative binding free energy” value is 0.18 kcal/mol.

In the case of AAAGACACGTGGGGAG, the “relative binding free energy” value is -0.1 kcal/mol.

Consider TTGGACACGTGTGTTA, for which the “relative binding free energy” value is 0.04 kcal/mol.

With TTGTTCACGTGGGCTC, the “relative binding free energy” value was 0.22 kcal/mol.

As for GTTGACACGTGATATT, the “relative binding free energy” value was determined as 0.14 kcal/mol.

On to TTTGGCACGTGTAACT, for which the “relative binding free energy” value is -0.01 kcal/mol.

Take AAGTGCACGTGGTGTA: the “relative binding free energy” value is -0.17 kcal/mol.

Regarding TGGAACACGTGAGGTT, the “relative binding free energy” value turned out to be 0.34 kcal/mol.

Take TCGGACACGTGGGTAT: the “relative binding free energy” value was -0.11 kcal/mol.

For the sequence TGCATCACGTGAGGTG, the “relative binding free energy” value was found to be 0.38 kcal/mol.

On to AGATACACGTGAGGGG, for which the “relative binding free energy” value came to 0.18 kcal/mol.

In the case of TGCGGCACGTGTCAGA, the “relative binding free energy” value stood at 0.05 kcal/mol.

On to TGAACCACGTGGGTTG, for which the “relative binding free energy” value was -0.26 kcal/mol.

Regarding TGAGTCACGTGAGATG, the “relative binding free energy” value turned out to be 0.32 kcal/mol.

As for ATTGGCACGTGTGGTA, the “relative binding free energy” value was -0.08 kcal/mol.

On to AGAAGCACGTGCGGGG, for which the “relative binding free energy” value is -0.09 kcal/mol.

Turning to GTAGTCACGTGACGGT, the “relative binding free energy” value turned out to be 0.17 kcal/mol.

On to TATCGCACGTGGGTTT, for which the “relative binding free energy” value was -0.26 kcal/mol.

For GTTGACACGTGTTAAA, the “relative binding free energy” value was 0.15 kcal/mol.

With TGATGCACGTGCAGGG, the “relative binding free energy” value is -0.01 kcal/mol.

In the case of TGAGGCACGTGGTGGA, the “relative binding free energy” value is -0.09 kcal/mol.

For the sequence GGGGTCACGTGATTAT, the “relative binding free energy” value came out at 0.36 kcal/mol.

For the sequence CTATGCACGTGGGTGG, the “relative binding free energy” value is -0.2 kcal/mol.

Turning to ATATGCACGTGTAGAG, the “relative binding free energy” value is -0.03 kcal/mol.

Turning to TGCCTCACGTGTGGTT, the “relative binding free energy” value was 0.13 kcal/mol.

With TTGGGCACGTGCTCTT, the “relative binding free energy” value is -0.16 kcal/mol.

For the sequence TAGGGCACGTGGTTAG, the “relative binding free energy” value is -0.1 kcal/mol.

As for CGGTTCACGTGAGTGA, the “relative binding free energy” value came out at 0.25 kcal/mol.

On to GAGTTCACGTGGGATT, for which the “relative binding free energy” value stood at 0.35 kcal/mol.

On to TGTAGCACGTGGAGAC, for which the “relative binding free energy” value was 0.06 kcal/mol.

In the case of GGTTTCACGTGATAAG, the “relative binding free energy” value is 0.22 kcal/mol.

Consider GTGTACACGTGTTGCG, for which the “relative binding free energy” value stood at 0.14 kcal/mol.

Take GTTTGCACGTGGGACA: the “relative binding free energy” value is -0.02 kcal/mol.

Take CGAGACACGTGTATGG: the “relative binding free energy” value is 0.14 kcal/mol.

For TGGGTCACGTGACAAG, the “relative binding free energy” value turned out to be 0.12 kcal/mol.

Regarding TTATACACGTGCGGAT, the “relative binding free energy” value worked out at 0.1 kcal/mol.

As to CCGTGCACGTGGAGGG, the “relative binding free energy” value was -0.12 kcal/mol.

Take GTTATCACGTGTATAT: the “relative binding free energy” value amounted to 0.19 kcal/mol.

For GAGTGCACGTGGAATT, the “relative binding free energy” value is 0.31 kcal/mol.

For the sequence GGGTACACGTGCTAGG, the “relative binding free energy” value was determined as 0.03 kcal/mol.

GTGGACACGTGTTATT: the “relative binding free energy” value was found to be 0.11 kcal/mol.

With TCTGACACGTGATGGT, the “relative binding free energy” value amounted to 0.04 kcal/mol.

With GTGAACACGTGTGATT, the “relative binding free energy” value came to 0.07 kcal/mol.

For ATTACCACGTGGGGGC, the “relative binding free energy” value is -0.12 kcal/mol.

TTATACACGTGAGTGC: the “relative binding free energy” value stood at 0.28 kcal/mol.

As for TTACACACGTGGTGAG, the “relative binding free energy” value is -0.07 kcal/mol.

Regarding GGGTACACGTGAGGAA, the “relative binding free energy” value worked out at 0.37 kcal/mol.

The values are drawn from the BET-seq Pho4 binding data (Le et al. 2018).
